Experimental data reported in the RNAGym collection of RNA variant scans (doi:10.1073/pnas.2313332121).
Variants at the background level are over-represented here.

B1: TPR 5TU (parent)
chain: GGAUCUUCUCGAUCUAACAAAAAAGACAAAUCUGCCACAAAGCUUGAGAGCAUCUUCGGAUGCAGAGGCGGCAGCCUUCGGUGGCGCGAUAGCGCCAACGUUCUCAACUAUGACACGCAAAACGCGUGCUCCGUUGAAUGGAGUUUAUCAUG

Variants of: B1
Assay: polymerase ribozyme fitness, log enrichment relative to wild type (log ratio); higher = more active; in vitro selection for triplet polymerase activity
Method in brief: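 After PCR construction and transcription, each subunit's mutant library from a heterodimeric triplet polymerase ribozyme was annealed with a biotinylated primer, the partner subunit and triplets. Incubation was frozen, at −7 °C, and extended constructs were gel-excised, bound to streptavidin beads and amplified by RT-PCR, in one selection round done in triplicate. Fitness is the logarithm of a genotype's enrichment divided by that of the wild type, from inverse-variance-weighted replicate averages of Illumina-sequenced inputs and outputs. The base of the logarithm is 2, and genotypes needed ≥10 input reads and ≥1 read per output.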

Row | Variant | polymerase ribozyme fitness (log ratio)
1 | GGAUCUUCUCGAUCUAACAAAAAAGCCAAAUCUGCCACAAAGCUUGAGAGCAUCUUCGGAUGCAGAGGCGGCAGCCUUCGGUGGGGGGAUAGCGGCAACGUUCUCAACUAUGACACGCAAAACUCGUGCUCCGUUGAAUGGAGUUUAUCAUG | ≤ -4.2
2 | GGAUCUUCUCGAUCUAACAAAAAAGCCAAAUCUGCCACAAAGGUUGAGAGUAUCUUCGGAUGCAUAGGCGGCAGCAUUCGGUGGCGCGAUAGCGCCAACGUUCUCAACUAUGACACGCAAAACGCGUGCUCCGUUCAAUGGAGUUUAUCAUG | ≤ -4.2
3 | GGAUCUUCUCGAUCUAACAAAAAAGCCAAAUCUGCCACAAAGCUUGAGAGCAUCUUAGGAUGCAGAGCCGGCAGCCUUCGGUGGCGCGAUAGCGCCAACGUUCUCAACUAUGACACGCAAAACGCGUGCUCCGAUGAAUGGAGUUUAUCAUG | ≤ -4.2
4 | GGAUCUUCUCGAUCUAACAAAAAAGCCAAAUCUGCCACAAAGCUUGAGAGCAUCUUCGGAUGCAGAGGUGGCAGCCUUCGGUGGCGCGAUAGCGCCAACGUUCUCAACUAUGACACGCAAAACGCGUGCUCCGAUGAAUGGAUUUUAUCAUG | ≤ -4.2
5 | GGAUCUUCUCGAUCUAACAAAAAAGCCAAAUCUGCCACAAAGCUUGAGAGCAUCUUCGGAUGCAGAGGCGGCAGCCUUCGGUGGUGCGAUAGCGCCAACGUUCUCAACUAUGACACGCAAAACGCGUGCUCCGUUGAAUGGAGUUUAUCAUG | -1.86
6 | GGAUCUUCUCGAUCUAACAAAAAAGCCAAAUCUGCCACAAAGCUUGAGAGCAUCUUCGGAUGAAGAGGCGGCAGCCUUCGGUGGCGCGAUAGCGCCAACGUUCUCAACUAUGACACGCAAAACGCGAGCUCCGUUGAAUGGAGUUUAUCAUG | ≤ -4.2
7 | GGAUCUUCUCGAUCUAACAAAAAAGCCAAAUCUGCCACAAAGCUUGAGAGCAUCUUCGGAUGCAGAGGCGGUAGCCUUCGGAGACGCGAUAGCGCCAACGGUCUCAACUAUGACACGCAAAACGCGUGCUCCGUUGAAUGGAGUUUAUCAUG | ≤ -4.2
8 | GGAUCUUCUCGAUCUAACAAAAAAGCCAAAUCUGCCACAAAGCUUGAGAGGAUCUUCGGAUGCAGAGGCGGCAGCCUUCGGUGGCGCGAUAGCGUCAACGUUCUCAACUAUGACACGCAAAACGCGUGCUCCGUUGAAUGGAGUUUAUCAUG | ≤ -4.2
9 | GGAUCUUCUCGAUCUAACAAAAAAGCCAAAUCUGCCACAAAGCUUGAGAGCAUCUUCGGAUGCAGAGGCGAGAGCCUUCGGUGGCGCGAUAGCGCCAAUGUUCUGAACUAUGACACGCAGAACGCGUGCUCCGUUGAAUGGAAUUUAUCAUG | ≤ -4.2
10 | GGAUCUUCUCGAUCUAACAAAAAAGCCAAAUCUGCCACAAAGUUUGAGAGCAUCUUCGGAUGCAGAGGCGGCAGCCUUCGGUGGCGCGAUAGCGCUUACGUUCUCAACUAUGACACGCAAAACGCGUGCUCCGUUGAAUGCAGUUUAUCAUG | ≤ -4.2
11 | GGAUCUUCUCGAUCUAACAAAAAAGCCAAAUCUGCCACAAAGCUUGAGAGUAUCUUCGGAUGCAGAAGCGGCAGCCUUCGGUGGCGCGAUAGUGCCAACGUUCUUAACUAUGACACGCAAAACGCGUGCUCCGUUGAAUGGAGUUUAUCAUG | ≤ -4.2
12 | GGAUCUUCUCGAUCUAACAAAAAAGCCAAAUCUGCCAUAAAGCUUGAGAGCGUAUUCGGAUGCAGAGGCGGCAGCCUUCGGUGGCCCGAUAGCGCCAACGUUCUCAACUAUGACACGCAAAACGCGUGCUCCGUUGAAUGGAGUUUAUCAUG | ≤ -4.2
13 | GGAUCUUCUCGAUCUAACAAAAAAGCCAAAUCUGCCACAAAGCUUGAGAGCAUCUUCGGAUGCAGAGGCGGCAGCGUUCGGUGGCGCUAUAGCGCCAACGUUCUCAACUAUGACACGCAAAACGCGUGCUCGGUUGAAUGGAGUUUAUCAUG | ≤ -4.2
14 | GGAUCUUCUCGAUCUAACAAAAAAGCCAAAUCUGCCACAAAGCUUGAGAGCAUCUUCGGAUGCAGAGUCGGCAGACUUCGGUGGCGUGAUAGCGCCAACGUUCUCAACUAUGUCACGCUAAACGCGUGCUCCCUUGAAUGGAGGUUAACAUG | ≤ -4.2
15 | GGAUCUUCUCGAUCUAACAAAAAAGCCAAAUCUGCCACAAAGCUUGAGAGCAUCUUCGGAUGCAGAGGCGGCAGACUUCGGAGGCGCGAUAGCGACAACGUCCUCAACUAUGACACGCAAAACGCGUGCUCCGUUGAAUGGACUUUAUCAUG | ≤ -4.2
16 | GGAUCUUCUCGAUCUAACAAAAAAGCCAAAUCUGCCACAAAGCUUGAGAGCAUCUUCGGAUGCAGAGGCGGCAGGCUUCGGUGGCGCGAGAGCGCCAACGUUCUCAACUAUGACACGCAAAACGCGUGCUCCGUUGAAUGGAGUUUAUCAUG | ≤ -4.2
17 | GGAUCUUCUCGAUCUAACAAAAAAGCCAAAUCUGCCACAAAGCUUGAGAGCAUCUUCGGAUGCAGAGACGGCAGCCUUCGGUGCAGCGAUAGCGCCAACGUUCUCAACUAUGAUACGCAAAACGCGUGCUCCGUUGAAUGGAGUUUAUCAUG | ≤ -4.2
18 | GGAUCUUCUCGAUCUAACAAAAAAGCCAAAUCUGCCACAAAGCUUGAGAGAAUCUUCGGAUGCAGAGGCGGCAGCCUUCGGUGGCGCGAUAACGCCAACGUUCUCAACUAUUACACGAAAAACGCGUGCUCCGUUGAAUGGAGUUUAUCAUG | ≤ -4.2
19 | GGAUCUUCUCGAUCUAACAAAAAAGCCAAAUCUGCCACAAAGCUUGAGAGCAUCUUCGGAUGCAGAGGCGGCAGCCUUCGGUGGCGCGAUAGCGCUACCGUUCUCAGCUAUGACACGCAAAACGCGUGCUCCGUUGAAUGGAGUUUAUCAUG | ≤ -4.2
